Among the data in the RNAGym collection of RNA variant scans (doi:10.1093/nar/gkz1192) are self-cleavage values, retold here.

The source gives no read counts; variants with many changes may rest on few reads.

The labels stand for the following.
B1: CPEB3 Ribozyme (parent)
chain: UAACAGGGGGCCACAGCAGAAGCGUUCACGUCGCAGCCCCUGUCAGAUUCUGGUGAAUCUGCGAAUUCUGCUGUAUAUCUC

In the data set the parent is B1. Description: self-cleavage, relative activity (ratio to wild type); higher = more cleavage; in vitro, sequencing. In short, it runs like this:
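CPEB3 self-cleaving ribozyme mutant libraries were made by rounds of error-prone PCR, barcoded, and transcribed in vitro with T7 RNA polymerase for 5 hours at 37°C. Cleavage occurred during transcription and a 15 min DNase I step before EDTA stop. RNAs were reverse transcribed with template switching and Illumina-sequenced, with DNA sequencing mapping barcodes to variants. Relative activity is the variant's cleaved/total read fraction divided by wild type's (minimum 5 reads), averaged across three batches.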
Take A20G U43C G53U: the self-cleavage amounted to 0.36.

As to A20U A35C C81U, the self-cleavage worked out at 0.14.

A20U C40A A56G U67C: the self-cleavage was determined as 0.13.

Consider A20G U69C A75G, for which the self-cleavage worked out at 0.33.

With A20G A64G U72G, the self-cleavage was determined as 0.56.

As to A20U U43C C62U A64G, the self-cleavage stood at 0.18.

Regarding A20U U41C A47G U51C A64U U80A, the self-cleavage came to 0.09.

Consider A21G A28G A56G G73C, for which the self-cleavage was 0.13.

With A20G A56G A57G U60C U69A, the self-cleavage was 0.13.

On to A20G U31A U54C U66C, for which the self-cleavage amounted to 0.19.

As for A20G U41C A47U A64G U72A U74C U80C, the self-cleavage is 0.07.

Consider A20G U25C U51C C59A, for which the self-cleavage worked out at 0.17.

For A21C U74G A75U, the self-cleavage is 0.23.

As to A20G U41G U58G U74A, the self-cleavage was found to be 0.42.

A20U C29A G52C U54A A56G G73C: the self-cleavage came to 0.26.

For A21C G33C U58A U74C U78C, the self-cleavage stood at 0.04.

Consider A21G A28G U78C, for which the self-cleavage came to 0.21.

With A20G G22A G46A U74A U76A, the self-cleavage was found to be 0.06.

On to A20U U41A G55U U58C U72C, for which the self-cleavage came to 0.05.

With A20U A35U U41A U72C, the self-cleavage turned out to be 0.42.

As to A20U U41C A47G A77G, the self-cleavage was determined as 0.13.

A20G C40U A45G U80G: the self-cleavage came out at 0.2.

Regarding A20U C32U A35G A77C U78C, the self-cleavage is 0.13.

Turning to A20G A47U U51A U66A, the self-cleavage worked out at 0.09.

Regarding A20G U48C U51A, the self-cleavage worked out at 0.22.

As for A20G U25C G52A U66A, the self-cleavage turned out to be 0.16.

For A20G U51A U80C, the self-cleavage amounted to 1.01.

As for A20G C39G U43C U51A U66C, the self-cleavage came to 0.24.

A20G U26A U48A U51G A57G A64U: the self-cleavage was determined as 0.07.

As to A21G A28G U31A G36A U41A A56G A57U, the self-cleavage was determined as 0.06.

With A21C C38U U51G, the self-cleavage came to 0.07.

With A20G U31A A45G U54C, the self-cleavage is 0.25.

As to A20U A35G A45U U49C U69C U72C U78C, the self-cleavage worked out at 0.15.

For the variant A21G A35U G46A U51C, the self-cleavage was determined as 0.08.

Consider A20G C39A A45C U60C, for which the self-cleavage came out at 0.

Regarding A20G U41C A56U U60A U76A, the self-cleavage came out at 0.17.

In the case of A20G C38U U51A A56G U78C, the self-cleavage stood at 0.09.

With A20G U31C U43C U80C, the self-cleavage was found to be 0.22.

In the case of A20U U80C C81A, the self-cleavage was 0.58.

Take A20U U58C U60C C62U A75U: the self-cleavage amounted to 0.09.

For the variant A20G U49C A65G U72C, the self-cleavage was 0.25.

For A20G C29U U49C, the self-cleavage worked out at 0.32.

Consider A21C U41C U49A A64G A77C, for which the self-cleavage is 0.14.

Take A21C U51C U58C: the self-cleavage came to 0.05.

As to A20U A35G A47G G52A C81U, the self-cleavage worked out at 0.94.

Consider A20G U31A A35U U74C U80C, for which the self-cleavage stood at 0.51.

Take A20G U49G U54G: the self-cleavage was 0.21.

Turning to A20G U26A U51G, the self-cleavage was 0.5.

In the case of A20G C39U U67C, the self-cleavage was determined as 0.46.

Consider A20U U25C U31G U51C U80A, for which the self-cleavage was determined as 0.12.

A21C A45G U49C: the self-cleavage was found to be 0.11.

With A21G A28U A45G U49C, the self-cleavage was found to be 0.2.

For A20G C44U U58C U72C U74C, the self-cleavage was determined as 0.07.

For A20G U31C A56U, the self-cleavage came to 0.54.

On to A20G G63U A64G, for which the self-cleavage worked out at 0.46.

With A20G A47G A56G G63U, the self-cleavage came out at 0.74.

In the case of A20G U31C A65G, the self-cleavage stood at 0.24.

Regarding A20U A35U A47U U49A A65G U80A, the self-cleavage was found to be 0.06.

In the case of A20G U67C U76C, the self-cleavage is 0.99.

For A20G U51A U66A, the self-cleavage was 0.41.

With A20U A28G C50A, the self-cleavage was 0.64.

Turning to A20U U60A A64G U78C, the self-cleavage is 0.1.

With A20U A21G U58C, the self-cleavage was determined as 0.13.

A20G G46U G52A G53A: the self-cleavage was found to be 0.8.

Turning to A20U U54A C59A, the self-cleavage was determined as 0.18.

A20G U25A A28U A77G: the self-cleavage is 0.19.

On to A20G U26A U41C A57G U72C, for which the self-cleavage worked out at 0.43.

Turning to A20U G36A U67C, the self-cleavage was determined as 0.12.

As to A20G U26A G30A C40U U66C, the self-cleavage turned out to be 0.12.

Consider A20U A56U A65G U74A A77G, for which the self-cleavage was determined as 0.07.

For the variant A21G A28G A47G U78C, the self-cleavage is 0.11.

As for A21G A28G G33A U48C, the self-cleavage worked out at 0.09.

With A20G U31C A35G A57G, the self-cleavage turned out to be 1.08.

On to A20U A45G U58C U66C C79U, for which the self-cleavage was 0.2.

A20G U25A U51C U66C U78C U80C: the self-cleavage was found to be 0.06.

For the variant A21G A28G U67G A77U, the self-cleavage was 0.13.

Consider A20G U26A U43A A45G A57U, for which the self-cleavage is 0.09.

Regarding A20U A21G A35U, the self-cleavage amounted to 0.16.

Regarding A20U A21G A35G, the self-cleavage turned out to be 0.3.

As for A20U U66A A77G, the self-cleavage is 0.25.

Regarding A20G U26C G42A U51C A64G, the self-cleavage worked out at 0.28.

Turning to A21G A35U A64G U74A U78C, the self-cleavage worked out at 0.1.

On to A20G G33U G70U U72A, for which the self-cleavage turned out to be 0.13.
